Here are results for 27 compounds from PMC11338008, “Development and validation of CYP26A1 inhibition assay for high-throughput screening” (Biotechnology journal, 2024).

Several values for one entry are separate records, joined by “and”; a condition that tells them apart may be missing. Equal entries are not always repeated. Structures can show the parent of a compound that is named as a salt. Where two headings read alike, the source gives them in different places.

The target in test [1] is T1, recombinant wild-type human CYP26A1 enzyme (Homo sapiens, UniProt O43174).
T1 sequence (O43174 1-497): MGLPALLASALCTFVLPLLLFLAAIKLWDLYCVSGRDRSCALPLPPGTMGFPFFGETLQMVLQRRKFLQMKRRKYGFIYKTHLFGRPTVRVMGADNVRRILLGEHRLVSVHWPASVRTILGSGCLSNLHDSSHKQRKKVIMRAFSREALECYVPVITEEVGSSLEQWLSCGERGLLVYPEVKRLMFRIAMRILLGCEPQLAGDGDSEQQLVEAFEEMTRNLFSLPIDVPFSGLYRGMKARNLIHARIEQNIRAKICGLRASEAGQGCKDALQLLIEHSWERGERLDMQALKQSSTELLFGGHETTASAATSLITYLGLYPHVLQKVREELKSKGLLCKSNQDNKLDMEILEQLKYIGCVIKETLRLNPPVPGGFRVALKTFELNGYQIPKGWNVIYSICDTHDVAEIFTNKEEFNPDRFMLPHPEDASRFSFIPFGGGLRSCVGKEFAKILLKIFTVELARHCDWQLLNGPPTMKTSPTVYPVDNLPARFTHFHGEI
Put plainly: biochemical. The settings on record: for Emax: read-out: Maximum response.

Test [2] addresses T1, recombinant wild-type human CYP26A1 enzyme. The settings on record: for fold difference in IC50 between atRA and its isomer: relative to atRA.
The mark [3] stands for this setting: IC50, mean ± SD from three experiments, 2 μM luciferin-BE, active = maximum response greater than 40%.
Where [4] appears, read: IC50 (Figure 3D, atRA and its isomers), 0.1% BSA + 0.025% CHAPS.

As to `O=C(O)c1ccc2cc(-c3ccc(O)c(C45CC6CC(CC(C6)C4)C5)c3)ccc2c1` [CD437], in test [1] (setting [3]), the IC50 was determined as 0.12 ± 0.01 µM. Moreover, the Emax in test [1] is -102%.
For the compound `OC(Cn1cncn1)(Cn1cncn1)c1ccc(F)cc1F` [Fluconazole], in test [1] (setting [3]), the IC50 was determined as 20.1 ± 2.85 µM. Further, the Emax in test [1] was -100%.
Take `C/C(=C\c1ccc(C(=O)O)cc1)c1ccc2c(c1)C(C)(C)CCC2(C)C` [TTNPB/Arotinoid acid, Arotinoid acid]: the 50% inhibitory concentration (IC50) in test [1] (setting [3]) stood at 10.7 ± 1 µM. Moreover, in test [1], the Emax is -109%.
As for `Cc1nn(C)c(Oc2ccccc2)c1C=NOCc1ccc(C(=O)OC(C)(C)C)cc1` [Fenpyroximate (Z,E)], in test [1] (setting [3]), the IC50 was found to be 34.7 ± 1.62 µM.
As for `Cn1c(=O)c2c(ncn2C)n(C)c1=O` [Caffeine], the “CYP26A1 inhibition, result in words” value in test [2] was “no effect”.
With `CC1(C)CCC(C)(C)c2cc(C3(c4ccc(C(=O)O)cc4)OCCO3)ccc21` [SR11237], the concentration for half-maximal inhibition (IC50) in test [1] (setting [3]) worked out at 6 ± 0.16 µM. For the same compound, the Emax in test [1] is -108%.
In the case of `C#CCOS(=O)OC1CCCCC1Oc1ccc(C(C)(C)C)cc1` (stereo not shown) [Propargite], in test [1] (setting [3]), the IC50 worked out at 38.2 ± 14.2 µM.
`CCCOC/C(=N\c1ccc(Cl)cc1C(F)(F)F)n1ccnc1` [Triflumizole]: in test [1] (setting [3]), the IC50 was determined as 9.53 ± 0.71 µM. For the same compound, in test [1], the Emax was -110%.
Regarding `CC1=C(/C=C/C(C)=C\C=C\C(C)=C\C(=O)O)C(C)(C)CCC1` [9-cis-RA, 9-cis-retinoic acid], the “fold difference in IC50 between atRA and its isomer” value in test [2] turned out to be 2 fold. Besides, in test [1] (setting [4]), the IC50 came out at 2.8 µM.
As to `CCCCCCCCCC=O` [Decanal], the “CYP26A1 inhibition, result in words” value in test [2] is given as “no effect”. Also, in test [2] (mean ± SD from three experiments, 2 μM luciferin-BE, active = maximum response greater than 40%), the IC50 result is on record as “Inactive”.
On to `CC1(C)CCC(C)(C)c2cc(NC(=O)c3ccc(C(=O)O)cc3)ccc21` [Tamibarotene/AM80, Tamibarotene], for which the IC50 in test [1] (setting [3]) was 4.5 ± 0.11 µM. The Emax in test [1] is -106%.
The matching figures for `CC1(C)CCC(C)(C)c2cc(C(=O)Nc3ccc(C(=O)O)cc3)ccc21` [AM580]: 4.13 ± 0.21 µM and -107%.
In the case of `CC(C)(C)C(=O)C(Oc1ccc(Cl)cc1)n1cncn1` (stereo not shown) [Triadimefon], the IC50 in test [1] (IC50 (Figure 3A plot key), 0.1% BSA + 0.025% CHAPS) was determined as 0.7 µM; in test [1] (IC50 (Figure 3B plot key), 0.1% BSA + 0.01% Triton X-100) it was 6 µM; in test [1] (IC50 (Figure 3C plot key), 0.1% BSA + 0.01% Tween-20) it was 4.4 µM; in test [1] (setting [3]), 1.11 ± 0.05 µM. Moreover, the Emax in test [1] is -102%.
With `O=C(O)Cc1c[nH]c2ccccc12` [Indole-3-acetic acid], the IC50 in test [1] (setting [3]) stood at 19.1 ± 2.35 µM. Also, in test [1], the Emax is -85%.
In the case of `N#Cc1c(Cl)c(Cl)c(Cl)c(C#N)c1Cl` [Chlorothalonil], the “CYP26A1 inhibition, result in words” value in test [2] is on record as “novel CYP26A1 inhibitors”. Further, the Emax in test [1] is -55.3%.
As to `C=C(c1ccc(C(=O)O)cc1)c1cc2c(cc1C)C(C)(C)CCC2(C)C` [Bexarotene], in test [1] (setting [3]), the IC50 was 5.3 ± 0.6 µM. Further, the Emax in test [1] was -110%.
Take `CC1=C(/C=C/C(C)=C/C=C/C(C)=C/C(=O)O)C(C)(C)CCC1` [atRA, all-trans retinoic acid]: the “Hill slope of inhibition curve” value in test [2] (best fit of atRA inhibition curve) was −1. Besides, the IC50 in test [1] (setting [4]) was found to be 1.1 µM.
In the case of `COc1ccc(-c2ccc3cc(C(=O)O)ccc3c2)cc1C12CC3CC(CC(C3)C1)C2` [Adapalene], the IC50 in test [1] (setting [3]) is 0.1 µM. In addition, the Emax in test [1] was -101%.
As to `CCOC(=O)/C=C(C)/C=C/C=C(C)/C=C/c1c(C)cc(OC)c(C)c1C` [Etretinate], the IC50 entry in test [2] is given as “Inactive”.
For `CC1=C(/C=C/C(C)=C/C=C/C(C)=C\C(=O)O)C(C)(C)CCC1` [13-cis-RA, 13-cis-retinoic acid], the “fold difference in IC50 between atRA and its isomer” value in test [2] is 6 fold. Also, in test [1] (setting [4]), the IC50 was 6.1 µM.
`Clc1cccc(C(c2ccc3[nH]cnc3c2)n2ccnc2)c1` (stereo not shown) [Liarozole dihydrochloride]: the Emax in test [1] was -103%.
Take `CC(C)N1C(=O)N(c2ccccc2)CS/C1=N\C(C)(C)C` [Buprofezin]: the IC50 in test [1] (setting [3]) came out at 78.7 ± 38.6 µM. Further, in test [1], the Emax was -75.7%.
Turning to `O=C(c1ccc(OCCN2CCCCC2)cc1)c1c(-c2ccc(O)cc2)sc2cc(O)ccc12` [Raloxifene hydrochloride], the Emax in test [1] was -102%.
Regarding `O=C(O)C(=O)O` [Oxalic acid], in test [2], the “CYP26A1 inhibition, result in words” value is listed as “no effect” and the IC50 entry was “Inactive”.
As to `CC1(C)CCSc2ccc(C#Cc3ccc(C(=O)O)cn3)cc21` [Tazarotenic Acid], the half-maximal inhibitory concentration (IC50) in test [1] (setting [3]) is 2.4 µM and 2.37 µM. For the same compound, the Emax in test [1] was -103%.
For the compound `CCOC(=O)c1ccc(C#Cc2ccc3c(c2)C(C)(C)CCS3)nc1` [Tazarotene], the half-maximal inhibitory concentration (IC50) in test [1] (setting [3]) amounted to 54.1 ± 6.1 µM. Moreover, in test [1], the Emax is -71.1%.
Take `CCC(CC)C(c1ccc(Nc2nc3ccccc3s2)cc1)n1cncn1` (stereo not shown) [R115866/Talarozole, Talarozole]: the “times less potent in the luciferin-BE assay compared to atRA probe substrate assay” value in test [2] (50 vs. 5 nM) worked out at 10 times. In addition, the IC50 in test [1] (setting [3]) was found to be 0.05 ± 0.004 µM. Besides, the Emax in test [1] was -102%.

As usually defined, the IC50 is the concentration needed to halve the response being measured.
